{"source": "PubChem BioAssay AID1458", "about": "(National Center for Advancing Translational Sciences (NCATS), 2008)", "note": "Out of some 210,000 compounds screened, about 5,900 (2.8%) were called active. This list was built around the results that the source calls inconclusive (neither active nor inactive); the mix of calls is not that of the screen. The call rests on the fitted dose curve; in most records, active means well fitted activation curve with a large enough effect; inconclusive means small, poorly fitted or top-dose-only effect; inactive means no such curve, though single readings can be large or run the other way. A potency beside an inconclusive call is a rough fit, not a confirmed value. Potency means the concentration at half of the fitted maximal effect; tags describe the fitted curve by direction and shape."}
{"assay": "qHTS Assay for Enhancers of SMN2 Splice Variant Expression; further: nearly all actives have a fitted effect of over 55% in size; on activity change, positive = activation: % of control where 0% means no effect", "conditions": "HEK293 SMN2-luciferase splicing reporter, luminescence, 30-36 h; activity change, positive = activation: at 46.1 µM (top of the series)", "procedure,_shortened": "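HEK293 cells carry an SMN2 minigene-luciferase reporter in which exon 7 inclusion puts luciferase in frame. Cells were seeded at 2000 cells/well, attached for 10-12 hours, then exposed to compounds for 30-36 hours at 37C before ONE-Glo luminescence.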"}
{"smiles": "N#C/C(=C/c1cn(CC(=O)O)c2ccccc12)C(=O)NCc1ccccc1", "Potency": "inactive"}
{"smiles": "O=C(COc1ccc(Br)cc1Cl)NC1CCCCC1", "Potency": "inconclusive: 2 µM [activator, full curve]"}
{"smiles": "COc1ccc(C(CC(=O)c2ccccc2)S(=O)(=O)c2ccc(C)cc2)cc1", "note": "(stereo not given)", "Potency": "inconclusive: 31.6 µM [activator, single point]"}
{"smiles": "O=C(NCc1ccco1)c1ccc(Oc2ccccc2)cc1", "Potency": "inactive"}
{"smiles": "Cc1noc(C)c1C(=O)N1CCC[C@@]2(CCN(C(=O)Nc3ccccc3)C2)C1", "Potency": "inactive"}
{"smiles": "O=C(NCCC1=CCCCC1)c1cc2c(s1)CS(=O)(=O)C2", "Potency": "inconclusive: 8.91 µM [activator, partial curve]"}
{"smiles": "Cc1ccccc1OCC(=O)Nc1nc2ccccc2[nH]1", "Potency": "active: 17.8 µM"}
{"smiles": "COCCOC(=O)/C=C1/NC(=O)CS1", "Potency": "inconclusive: 17.8 µM [activator, single point]"}
{"smiles": "CCOc1ccccc1NC1=NCC(=O)N1Cc1ccc(F)cc1", "Potency": "inactive"}
{"smiles": "O=[N+]([O-])c1cc(/C=N/N2CCCCC2)ccc1Cl", "activity change, positive = activation": "inconclusive: 35.2% [activator]"}
{"smiles": "CC1CCN(c2ncnc3c2cnn3-c2ccccc2)CC1", "Potency": "active: 12.6 µM"}
{"smiles": "Cc1nc2ccc(NC(=O)NCCCO)cc2s1", "Potency": "active: 12.6 µM"}
{"smiles": "O=C(Oc1ccccc1)N1CCC2(CC1)CCN(c1ccccc1)CC2", "Potency": "inactive"}
{"smiles": "CC1=C(C(=O)N2CCOCC2)C(c2ccsc2)C2=C(CCCC2=O)N1", "note": "(stereo not given)", "Potency": "inconclusive: 0.005 µM [activator, full curve, poor fit]"}
{"smiles": "Cc1ccc(OCc2nc(-c3cccs3)no2)c([N+](=O)[O-])c1", "Potency": "active: 2.82 µM"}
{"smiles": "S=C(N=Nc1ccccc1)NNc1ccccc1", "Potency": "inconclusive: 8.91 µM [activator, partial curve]"}
{"smiles": "COc1ccc(-c2cc3ccccc3c(=O)o2)cc1", "Potency": "active: 12.6 µM"}
{"smiles": "CCC(=O)N1CCc2cc(S(=O)(=O)NCCC(=O)Nc3ccc(C)cc3)ccc21", "Potency": "inactive"}
{"smiles": "Cn1c(=O)n(C)c2cc(CN3C(=O)OC(C)(C)C3(C)O)ccc21", "note": "(stereo not given)", "Potency": "inconclusive: 35.5 µM [activator, single point]"}
{"smiles": "CCN(CC)c1ccc(NC(=O)CSc2nc3ccccc3c(=O)[nH]2)cc1", "Potency": "inconclusive: 7.08 µM [activator, partial curve, poor fit]"}
{"smiles": "COc1ccc(N=NC2=C(O)CC(C)(C)CC2=O)cc1", "Potency": "inconclusive: 20 µM [activator, single point]"}
{"smiles": "CCCC(=O)NC(=S)Nc1sc2c(c1C(N)=O)CCC2", "Potency": "inconclusive: 17.8 µM [activator, single point]"}
{"smiles": "Cc1cccc(/N=C/c2c(O)[nH]c3ccccc23)n1", "Potency": "inconclusive: 25.1 µM [activator, single point]"}
{"smiles": "NC(=O)c1ccsc1NC(=O)CSc1ccccc1F", "Potency": "inconclusive: 22.4 µM [activator, partial curve, poor fit]"}
{"smiles": "COC(=O)COc1ccccc1C(=O)Nc1ccc(OC)cc1", "Potency": "inactive"}
{"smiles": "C=C1C(N)CC2CC1C2(C)C", "note": "(stereo not given)", "Potency": "inactive"}
{"smiles": "Nc1cc(=O)nc(SCC(=O)Nc2ccc(F)cc2)n1-c1ccc(Cl)cc1", "Potency": "inactive"}
{"smiles": "Nc1ccccc1-c1nnn(CC(=O)N2CCCc3ccccc32)n1", "Potency": "inconclusive: 1.78 µM [activator, partial curve]"}
{"smiles": "Cc1ccccc1OCCCCn1cnc2ccccc21", "Potency": "inactive"}
{"smiles": "Nc1ccccc1Nc1cc(-c2ccccc2)nn1-c1ccccc1", "Potency": "inactive"}
{"smiles": "O=C(Nc1ccn(Cc2ccccc2)n1)c1ccc2c(c1)OCO2", "Potency": "inconclusive: 15.8 µM [activator, partial curve]"}
{"smiles": "CCN1C(=O)C(O)(CC(=O)C(C)(C)C)c2cc(Br)ccc21", "note": "(stereo not given)", "Potency": "inconclusive: 1.58 µM [activator, partial curve, poor fit]"}
{"smiles": "Cc1ccc(CN2CCSc3ccc(C(=O)Nc4ccc(F)cc4F)cc32)cc1", "Potency": "inconclusive: 17.8 µM [activator, single point]"}
{"smiles": "Clc1ccc(CSc2ccc(-c3ccco3)nn2)cc1", "Potency": "inconclusive: 17.8 µM [activator, single point]"}
{"smiles": "CCc1ccc2nc(N3CCC(C(=O)O)CC3)sc2c1", "Potency": "inconclusive: 1.41 µM [activator, partial curve, poor fit]"}
{"smiles": "COc1ccc(CNc2nc(-c3ccccc3)nn2C(=O)c2ccc([N+](=O)[O-])cc2)cc1", "Potency": "inconclusive: 35.5 µM [activator, single point]"}
{"smiles": "Cc1csc2ncc(C(=O)Nc3cccc(C(F)(F)F)c3)c(=O)n12", "Potency": "inconclusive: 17.8 µM [activator, single point]"}
{"smiles": "CC(=O)N(/N=C1\\Sc2ccccc2C1=O)c1ccccc1C", "Potency": "inconclusive: 12.6 µM [activator, partial curve, poor fit]"}
{"smiles": "Nc1c(C(=O)NCc2ccc3c(c2)OCO3)nnn1-c1ccc(OC(F)(F)F)cc1", "Potency": "inactive"}
{"smiles": "Cc1ccc(N(CC(=O)Nc2cc(C)cc(C)c2)S(=O)(=O)c2cccc3nonc23)cc1", "Potency": "inconclusive: 0.0141 µM [activator, full curve, poor fit]"}
{"smiles": "Cc1ccc(C)c(NC(=O)c2cnn3ccccc23)c1", "Potency": "inactive"}
{"smiles": "COC(=O)c1cccc(NC(=O)c2cc(OC)c(OC)c(OC)c2Br)c1", "Potency": "inconclusive: 5.62 µM [activator, single point]"}
{"smiles": "Cc1ccc(-c2nc3ccccc3o2)cc1NC(=S)NC(=O)c1cc2ccccc2o1", "Potency": "inconclusive: 1.58 µM [activator, full curve, poor fit]"}
{"smiles": "O=c1[nH][nH]cc1C=Nc1ccccc1O", "Potency": "inconclusive: 3.16 µM [activator, single point]"}
{"smiles": "COCCN1CCN(c2c3c(nc4cc(-c5cccc(F)c5)nn24)CCC3)CC1", "Potency": "inactive"}
{"smiles": "COc1cc2c(cc1OC)C1C/C(=N\\O)C(CC(C)C)CN1CC2", "note": "(stereo not given)", "Potency": "inconclusive: 1.78 µM [activator, partial curve, poor fit]"}
{"smiles": "O=C(c1ccc(S(=O)(=O)c2ccccc2Cl)c([N+](=O)[O-])c1)N1CCN(Cc2ccccc2)CC1", "activity change, positive = activation": "inactive: -15.2% [at 1.84 µM]"}
{"smiles": "c1ccc(CCCc2nc(-c3ccccn3)no2)cc1", "Potency": "active: 20 µM"}
{"smiles": "NC(=O)c1ccccc1N=Cc1ccc2ccccc2c1", "Potency": "inconclusive: 1.12 µM [activator, full curve, poor fit]"}
{"smiles": "O=C(CSc1nc2c(sc3ccccc32)c(=O)n1CCO)NCC1CCCO1", "note": "(stereo not given)", "Potency": "inconclusive: 0.0112 µM [activator, full curve, poor fit]"}
{"smiles": "COc1ccc(CNC(=O)c2cc3c(s2)-c2ccccc2OC3)cc1", "Potency": "inconclusive: 35.5 µM [activator, single point]"}
{"smiles": "Nc1ccc2ncccc2c1", "Potency": "inconclusive: 0.355 µM [activator, partial curve, poor fit]"}
{"smiles": "CC(C)CNC(=O)c1cc(-c2ccco2)on1", "Potency": "inconclusive: 28.2 µM [activator, single point]"}
{"smiles": "Cc1ccc2ccccc2c1[N+](=O)[O-]", "Potency": "inactive"}
{"smiles": "CC(C)c1ccc(C2N=C(N)Nc3nc4ccccc4n32)cc1", "note": "(stereo not given)", "Potency": "inconclusive: 3.55 µM [activator, single point]"}
{"smiles": "CSc1ncc(Cl)c(C(=O)N(Cc2ccc(N(C)C)cc2)Cc2ccco2)n1", "Potency": "inactive"}
{"smiles": "COc1ccccc1NC(=O)N1CCc2[nH]c3ccc(Cl)cc3c2C1", "Potency": "inactive"}
{"smiles": "COc1cccc(OC)c1Oc1ccc(C(F)(F)F)cn1", "Potency": "inconclusive: 0.01 µM [activator, full curve, poor fit]"}
{"smiles": "O=C(NCCc1ccccc1)C(=O)N/N=C/c1ccc2c(c1)OCO2", "Potency": "inconclusive: 2.51 µM [activator, full curve, poor fit]"}
{"smiles": "COc1ccc2o/c(=N/NC(=O)c3cccs3)c(C(N)=O)cc2c1", "Potency": "active: 14.1 µM"}
{"smiles": "CCOC(=O)c1ccc(NC(=O)C2CCN(S(=O)(=O)CC)CC2)cc1", "Potency": "inconclusive: 1.78 µM [activator, partial curve]"}
{"smiles": "COC(=O)C(CCSC)NC(=O)c1cc2c(n(-c3ccc(C)cc3)c1=O)CC(C)(C)CC2=O", "note": "(stereo not given)", "Potency": "inactive"}
{"smiles": "COc1ccc(C2=NN(C(=O)CN3CCCCC3)C(c3ccc(C)cc3)C2)cc1", "note": "(stereo not given)", "Potency": "inactive"}
{"smiles": "c1ccc(-n2nnnc2NCCc2c[nH]c3ccccc23)cc1", "Potency": "inconclusive: 1.58 µM [activator, full curve]"}
{"smiles": "COc1ccc(OCC(=O)Nc2ccc(S(=O)(=O)N3CCOCC3)cc2)cc1", "Potency": "inconclusive: 1 µM [activator, full curve]"}
{"smiles": "O=C(Nc1ccc2c(c1)OCCO2)c1ccc(S(=O)(=O)N2CCCCC2)cc1", "Potency": "inconclusive: 12.6 µM [activator, partial curve, poor fit]"}
{"smiles": "O=C(Nc1cc(N2CCCCC2)ncn1)c1ccc(F)cc1", "Potency": "inconclusive: 15.8 µM [activator, single point]"}
{"smiles": "Nc1nnc(SCC(=O)Nc2ccc(F)c(Cl)c2)n1-c1ccccc1", "Potency": "inconclusive: 0.0089 µM [activator, full curve]"}
{"smiles": "Cc1nc2nc(SCC(=O)NCCc3ccc(Cl)cc3)nn2c(C)c1Cc1ccccc1", "Potency": "inactive"}
{"smiles": "Cc1ccc(S(=O)(=O)c2nc(-c3cccc(C)c3)oc2N2CCN(c3ccccc3)CC2)cc1", "Potency": "inactive"}
{"smiles": "COc1ccc(CNC(=O)/C(C)=C\\C(=O)O)cc1", "Potency": "inactive"}
{"smiles": "CCc1ccc2oc(-c3cc(NC(=O)C(C)C)cc(C)c3O)nc2c1", "Potency": "inactive"}
{"smiles": "COc1cccc(Cn2cccc(NC(=O)Nc3ccc(C#N)cc3)c2=O)c1", "Potency": "inactive"}
{"smiles": "CCCc1cc(=O)[nH]c(Nc2ccc(O)cc2)n1", "Potency": "inconclusive: 0.1 µM [activator, full curve]"}
{"smiles": "O=C(CSc1nnc2scc(-c3ccccc3)n12)NCc1ccc2c(c1)OCO2", "Potency": "inconclusive: 0.0562 µM [activator, full curve, poor fit]"}
